Measured values as given in PubChem BioAssay AID904 (National Center for Advancing Translational Sciences (NCATS), 2007).
About 530 (0.96%) of roughly 55,000 compounds were called active. The shares of active, inactive and inconclusive entries below differ from those in the screen. The call rests on the fitted dose curve; in most records, active means well fitted cell-killing curve with a large enough effect; inconclusive means small, poorly fitted or top-dose-only effect; inactive means no such curve, though single readings can be large or run the other way. Where the call is inconclusive, the potency comes from a doubtful curve fit.

Assay: qHTS Screen for Compounds that Selectively Target Cancer Cells with p53 Mutations: Cytotoxicity of p53 Null Cells at the Nonpermissive Temperature; further: nearly all actives have a fitted effect of over 50% in size;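 on activity, negative = cell killing: 0% = DMSO only and -100% = full killing by 100 µM tamoxifen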
Settings: H1299 p53-null (neo) cells, 39C, ATPlite viability, 24 h; series mostly up to 46.1 µM; activity, negative = cell killing: at the top concentration
Outline: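 Temperature-shift cytotoxicity format: compound titrations on p53-null or A138V-expressing H1299 cells held 24 hr at 39C, cell ATP then measured, AC50 from Hill model.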
Potency means the concentration at half of the fitted maximal effect; tags describe the fitted curve by direction and shape.

Row | SMILES | Potency | activity, negative = cell killing
1 | Cc1ccc(S(=O)(=O)c2nnn3c2nc(N2CCC(C(N)=O)CC2)c2cc(Cl)ccc23)cc1C | inconclusive: 22.4 µM [cytotoxic, single point] | –
2 | O=C(NC1(C(F)(F)F)Oc2ccccc2O1)N1CCC2(CC1)OCCO2 | inconclusive: 14.1 µM [cytotoxic, partial curve, poor fit] | –
3 | O=C(CCC1N=C2c3ccccc3N=C(SCc3cccc(Cl)c3)N2C1=O)N1CCN(c2ccccc2)CC1 (stereo not given) | inconclusive: 11.2 µM [cytotoxic, partial curve] | –
4 | Cc1ccccc1Cn1cccc(C(=O)Nc2nc3ccccc3s2)c1=O | – | inactive: 13.7%
5 | c1ccc(OCCSc2nc3ccccc3[nH]2)cc1 | inconclusive: 20 µM [cytotoxic, single point] | –
6 | COC(=O)C1CN(C#N)N(c2ccc(Cl)cc2)C12c1ccccc1-c1ccccc12 (stereo not given) | inconclusive: 35.5 µM [cytotoxic, single point] | –
7 | COCCNc1oc(-c2ccc(OC)cc2)nc1C#N | inconclusive: 31.6 µM [cytotoxic, single point] | –
8 | COc1ccc2c(c1)-c1nc(NC(=O)c3ccc(Cl)cc3)sc1CC2 | inconclusive: 0.398 µM [cytotoxic, full curve] | –
9 | COC(=O)[C@@H]1[C@@H](C(=O)OC)C2(c3ccccc3-c3ccccc32)N(c2ccc(Cl)cc2)N1C#N | inconclusive: 31.6 µM [cytotoxic, single point] | –
10 | COc1ccc(CCNC(=O)CCn2c(=O)c3ccccc3n(Cc3ccc(Cl)cc3)c2=O)cc1OC | inconclusive: 25.1 µM [cytotoxic, partial curve, poor fit] | –
11 | Cc1cccc(Cn2cccc(C(=O)Nc3ccc4c(c3)OCCO4)c2=O)c1 | inconclusive: 17.8 µM [cytotoxic, partial curve] | –
12 | Cc1ccc(-n2nc3c(N4CCC(C(=O)NCc5ccccc5Cl)CC4)nnc(C)c3c2C)cc1 | inconclusive: 31.6 µM [cytotoxic, single point] | –
13 | CCCn1c2ccccc2c2nnc(SCC(=O)Nc3cccc(C(C)=O)c3)nc21 | inconclusive: 0.126 µM [cytotoxic, full curve, poor fit] | –
14 | COc1ccc(Cl)cc1S(=O)(=O)Nc1cccc(-c2ccc(N3CCCC3)nn2)c1 | inconclusive: 0.158 µM [cytotoxic, full curve, poor fit] | –
15 | O=C(CSc1oc(-c2ccccc2)nc1S(=O)(=O)c1ccc(Cl)cc1)Nc1ccc(F)cc1 | inconclusive: 1 µM [cytotoxic, partial curve] | –
16 | COc1ccc(Cl)cc1NC(=O)CN1C(=O)CN=C(c2ccccc2)c2cc(Cl)ccc21 | – | inactive: 13.1%
17 | Cc1oc2ccc(O)c(CN3CCCCCC3)c2c1C(=O)Nc1cccc(Cl)c1C | inconclusive: 17.8 µM [cytotoxic, single point] | –
18 | Cc1ccc(-n2c(=O)c3ccc(C(=O)NCc4ccccc4Cl)cc3n(CC(=O)Nc3cccc(Cl)c3)c2=O)cc1 | inconclusive: 12.6 µM [cytotoxic, partial curve] | –
19 | CCOc1ccc(NC(=O)c2cc3c(C)nn(-c4ccccc4)c3s2)cc1 | inconclusive: 31.6 µM [cytotoxic, single point] | –
20 | Cc1ccc2oc(-c3ccc(Cl)cc3)c(O)c(=O)c2c1 | inconclusive: 12.6 µM [cytotoxic, single point] | –
21 | N#Cc1cc2c(nc1SCC(=O)Nc1ccc(OC(F)(F)F)cc1)C1CCN2CC1 | – | inactive: 6.05%
22 | COCCN(CCOC)S(=O)(=O)c1ccc(C(=O)Nc2sc3c(c2C(N)=O)CCCC3)cc1 | inconclusive: 0.251 µM [cytotoxic, full curve] | –
23 | O=c1oc2ccccc2cc1-c1cn2cc(Cc3ccc(F)cc3)sc2n1 | inconclusive: 1.26 µM [cytotoxic, full curve] | –
24 | O=C(NC(c1ccc(Cl)cc1)P(=O)(Oc1ccccc1)Oc1ccccc1)OCc1ccccc1 (stereo not given) | inconclusive: 0.891 µM [cytotoxic, full curve, poor fit] | –
25 | O=C(Nc1ccon1)c1cccn(Cc2ccccc2)c1=O | inconclusive: 0.0316 µM [cytotoxic, full curve, poor fit] | –
26 | CCOc1ccc(CNC(=O)c2cccc(Nc3nc4ccccc4n4nnnc34)c2)cc1OC | inconclusive: 39.8 µM [cytotoxic, single point] | –
27 | COc1ccc(NC(=O)c2ccco2)cc1NC(=O)COc1cc(C)cc(C)c1 | inconclusive: 25.1 µM [cytotoxic, partial curve] | –
28 | Cc1ccc(Cl)cc1NC(=O)NCc1cccn1Cc1ccc(F)cc1 | inconclusive: 10 µM [cytotoxic, partial curve] | –
29 | CCCCOc1ccc(CN2C(=O)C(=O)c3cc(C)ccc32)cc1OC | active: 20 µM | –
30 | Cc1ccc(NC(=O)N(Cc2ccc3c(c2)OCO3)C2CCN(Cc3ccccc3)CC2)cc1F | inconclusive: 22.4 µM [cytotoxic, partial curve, poor fit] | –
